# Laboratory results taken from the supplement of paper PMC12632987.
# Whole data set: some 2,300 sequences, median “median log2 fold change of GCK-ALFA target abundance (FLAG IP / Myc IP barcode read proportion)” near 0.095, cut for the lowest 2% near -0.47. This is one part of the list.
# B1: LC3A_132_249 (protein)
# chain: SEEKLEEALEEIEELLDKVVEALEKGEDYWPLIKELDEAAEEYAEELSLEETEELVERSEEYARELFEKRLDPNDEEARRALDIIEMLLDGVLIEKELKS
# B2: LC3A_17_552 (protein)
# chain: REELRERLRRLLEELRALVERLEPYDPEAARRLRERLERAEELLEAGRLREAAETLAEAAREAARRAEELEPKYGNEMSVLAMEFNGLELEAIGLLLELD
# B3: LC3A_147_396 (protein)
# chain: VKLEIDIDLITKDAEEEIIEDIKKLVEELKAKGYEVELEIEVEKLDENTTYISIKITVKAKTKEEAEEARDTIIDHFDEIEEKYKDKILGSLISYEIIEE
# B4: LC3A_3_1377 (protein)
# chain: GEELLEEAKKILEEQGRSEETKKAALETLKALLEKGYFNAAETLIELLKESEDLSDENLLAFFEDILRAVTEEDISEEELIKLIKEEFEIAKNDEEIEEL
# B5: LC3A_3_1524 (protein)
# chain: MEEIKKEILELLKEQGADEETLKKAEEALEILEKRGYEKAMKTLLEELKKLKDAPPETIAWFVEEVLRLLLEKDLSEEEVTEEIKRIARTALSASEIEEL
# B6: LC3A_17_591 (protein)
# chain: SEEIREELERLLKELEALIKEAKKYGIKEAKEVEKLLKEAKKALKEGKLREAAKLLEEAARLLADAFEKKEDELGSEASVLAMEANGLELEAIGILLKLE
# B7: LC3A_147_482 (protein)
# chain: MEVDIDVLVRDQEAADAFEAFIREKAAELEARGVEVEVEIKREQLSPDEVYIEVRIRIRAETEEEEEAAAQEFVDAIDAFIEENKDRVLAALISIERVEP
# B8: LC3A_17_588 (protein)
# chain: SEEIKKELEKLAKELKKLIKKAEKYGLEEAKEAEKLLKEAEKYIKEGKLKEAAETLAKAAELLSEAFEKKEEELGEEAELLELEADSIEIEALSILLKLE
# B9: LC3A_free_46_2383 (protein)
# chain: YKAEIDIDFGAMDKETAEKIAEEIKKAAEEISKKYGVKVEVEVEIIEDEDGNYYLRVKITIEGEDKEKVEEAVNELIEKIDEIAEKANVSYIISVEFIDE
# B10: LC3A_127_213 (protein)
# chain: EEKELLEEALKIAEEAEKAVDKIPEEGEKALEKAKKLLKELIKLLKKVPSLKEAKEDAEQALKLLEKLPELDEADREEALEHISMIISGIIIDIESELDK
# B11: LC3A_free_46_2369 (protein)
# chain: VKAKIDIDFLVETRELAEELAKELKEALEKIAKEYGVKLKIKVEITENPDGTYSLKIEIELEAEDLETLEKAVNAILDEIDKIAEKYNVSYIISVEIIKE
# B12: LC3A_3_1501 (protein)
# chain: MEEKLKETEELLKKMGASEEVIELALKALKKLLERGYEEAAETLIELLKEMKDLSNELLKEFLEEVLKLLETTDLDEETIKEKIIEIATITKNEAEIEEL
# B13: LC3A_147_391 (protein)
# chain: WKVEVLIDILTKDATEEIKKRFKELAEELKKEGYEVELKIKEEQIDEETTYIEIEITIIAETKEDAEKAAQKVLDAVDEMEEELKDKILGSIVSVTIEEA
# B14: LC3A_17_566 (protein)
# chain: MEEIKKEIEELIKELEELIKILEKYDPEAAKEVKELLEKAKKALEEGNLKEAAEYLAEAFRLAADRFSELSEETNGKFSNEEMLANGLELRAIGIIEKLE
# B15: LC3A_45_1938 (protein)
# chain: MWLATVLLGVPRELGDEALAAARELLDELEARGGPDLKVDRAALEATYAATRDDDVVLLEVKITHPTEEKALAAADELEERLRARLGPRVAAIIEVEKLP
# B16: LC3A_28_1116 (protein)
# chain: SVAEEIKKKFEEQVEEMLKSGEEKVIEVEIPGTLSLEEVKELAEYVAEKAGEAAEKIPVSIVIDVDKDVSDESIDVIADIAEKLEKEYPNVNVIIALEER
# B17: LC3A_free_46_2399 (protein)
# chain: YIGTIDVDALAKTKEDAEAMAKEIEEAARKLAKEYGVEVEIEVEIEEEPDGTVFLNVRITARAPDKETLEAFVNALIDEIEKIAEKYNFSVIISYEIEEA
# B18: LC3A_62_2044 (protein)
# chain: MYRAEVDVDILAKDEEAAETIAEELKAMLEELKKKDPNIKYEVKLDKENKYVSVKVTYEAETKEEAEAKADEILDAIDELLEKHEDLIEAALISVEFKKL
# B19: LC3A_free_46_2390 (protein)
# chain: ITGEIDLLLKGATEEQVKELAEAAKKKILELAKEKGINVEIEVEIEKLPDGDYYVNITVKSDSKDKNVVLDILDETEDYIEEKAKELGIKVSSIISVEED
# B20: LC3A_3_1736 (protein)
# chain: MEEKLKEARERLEKLGFSEEVIEAALEVVKALLEKGFYEAVETLLKELEELKDLPDEILIAMLEDIKRYVETNDVSEEEVIEKIKEEARVARNEAEIEEL
# B21: LC3A_3_1852 (protein)
# chain: MDEIIEEILELLKSLGRSEETIEAALRLAEALKERGYEEALKTFLEELKELKDLPDEILLAMFEDILAEVETKDLSEEETIELIKREARTARNEAEIEEL
# B22: LC3A_17_582 (protein)
# chain: KEEIREELEELLRELKELLKKAKEYGLPKAPEIEKLLEEAERALEEGNLLEAAKLLEEAADLLADAFEEKEEELGSEASLYEMEANGIELRAIGIILKLE
# B23: LC3A_3_1587 (protein)
# chain: LEEKEKEMIEALKKAGHSEETIEAVKELLELLKEKGYEKAAEEFIELVLENIDLSSELLLDVAEEMKALVEAGELSEEELIEKARELFRVARSEQEIIEL
# B24: LC3A_147_456 (protein)
# chain: MKYVISVDVLFKNDPELVEEVEKKLREIAEKYGGEVKVERQEIQESPTTTEYYLRVDITFEDEEKAKAAEQEVSKLLEETAKKYPDKFLGSMISFDKEEE
# B25: LC3A_free_8_2537 (protein)
# chain: MIEKLRKEASEILDKAEEEVEKKAKELGIDPLDVNELLLLLGEAIIEIHEIETESIEDVKKDVTESLDKAIELAKKLSPEIAKIVEEAKKKVLELLEKME
# B26: LC3A_45_1952 (protein)
# chain: MYVAEVDVLVPAAEFDKAVAVLKEKAKELEKEKGLKVEIDEKALAEARKEAEAEGEALVTVTVYSEDKDEALDAAVEIEDALEEAMSPSVASIISIKEEP
# B27: LC3A_28_1030 (protein)
# chain: AALKAAAAAALAEARAQFEAGEEAVVTLDVGDVPTAEAKAVVTAFLAELRALSAEYGGRKVSVVINYDGDQATLDAIIDAAEAAEAEDPNLTVIIAYADN
# B28: LC3A_28_751 (protein)
# chain: MNIEDDVEAAIKEAKEAKAKGEEKVIELTVPNGATQEDVDKLIKGLEEIAEIAKDMKAVSIVINVDSGVSQENLDKLMDKGEELEKKYPNITVIFALDEE
# B29: LC3A_141_386 (protein)
# chain: MKKEFEFTATEEEAQEVFDFFDEVEKELLEMIEESGGKPVKVKVTIKATNDETGEVVEKEEEFTVTKENVSEVMEGLAIEVLSLLDKVKGTVEVKIEAEV
# Target: MAP1LC3A, Q9H492
# Test: median log2 fold change of GCK-ALFA target abundance (FLAG IP / Myc IP barcode read proportion) (log2 ratio); each designed protein is fused to an ALFA-tag nanobody in HEK293 cells to bring the named protein to FLAG-tagged glucokinase (GCK); Myc marks an untargeted standard; higher = target protein stabilised (more abundant)
# Conditions: target protein: 3xFLAG-MCP-GCK-ALFA reporter; HEK293 landing pad (RPLP)
# In short: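 Sequencing of reverse-transcribed, amplified circular RNA barcodes from anti-FLAG and anti-Myc immunoprecipitates provided the readout for an ALFA-nanobody-fused binder library recombined into HEK293 landing-pad cells. Those cells were induced with 2 μg mL^−1 doxycycline, transfected with a plasmid expressing a FLAG-tagged target and a Myc-tagged standard, and lysed after 48 h. Target abundance is the per-binder median log2 ratio of FLAG to Myc barcode read proportions. Only barcodes at a proportion of ≥10^−7 in both replicates and binders with ≥3 barcodes per replicate were kept, with a 10^−6 pseudocount added before the two replicates were pooled.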
row,Binder,median log2 fold change
1,B1,-0.409
2,B2,0.248
3,B3,-0.161
4,B4,0.612
5,B5,0.153
6,B6,-0.0708
7,B7,-0.0679
8,B8,0.0563
9,B9,0.115
10,B10,-0.0927
11,B11,-0.376
12,B12,0.286
13,B13,-0.0297
14,B14,0.102
15,B15,-0.182
16,B16,-0.171
17,B17,-0.0856
18,B18,-0.21
19,B19,-0.00124
20,B20,0.238
21,B21,0.234
22,B22,-0.158
23,B23,0.23
24,B24,0.165
25,B25,0.329
26,B26,-0.00967
27,B27,-0.268
28,B28,-0.0515
29,B29,0.221
